Reference: the BET-seq Pho4 binding data (Le et al. 2018)
Some of the results follow. The energies were worked out here from pooled read counts, against the library average; single values are noisy.

molecular target: T1, Pho4 (S. cerevisiae) (UniProt P07270); experiment: relative binding free energy (BET-seq); higher = weaker binding; conditions: reference: library average
T1 sequence: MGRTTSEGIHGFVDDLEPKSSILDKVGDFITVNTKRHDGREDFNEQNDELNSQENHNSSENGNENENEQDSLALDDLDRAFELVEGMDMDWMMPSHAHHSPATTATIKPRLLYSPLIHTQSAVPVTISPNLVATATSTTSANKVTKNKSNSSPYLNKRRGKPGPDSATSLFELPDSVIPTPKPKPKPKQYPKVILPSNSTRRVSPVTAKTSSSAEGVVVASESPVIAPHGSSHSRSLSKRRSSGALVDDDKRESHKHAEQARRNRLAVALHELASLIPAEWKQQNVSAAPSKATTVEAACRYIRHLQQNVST

Row | Sequence | relative binding free energy [kcal/mol]
1 | AGTGACACGTGGAGTG | -0.05
2 | TTGGTCACGTGAATTA | 0.32
3 | TGATGCACGTGGGATT | -0.04
4 | TGGTTCACGTGACTGG | 0.45
5 | AAAGGCACGTGATAGT | -0.16
6 | TATTGCACGTGTTGTG | 0.03
7 | AGCGGCACGTGTTGTT | 0.09
8 | GAGGGCACGTGCATGA | 0.05
9 | GCTGCCACGTGTTGGG | -0.14
10 | TTAAGCACGTGATGCG | -0.14
11 | AGCGTCACGTGTGGCA | 0.05
12 | ACGGGCACGTGTGAGT | -0.08
13 | ATATGCACGTGGATTG | 0.07
14 | GGTCTCACGTGGTTAT | 0.01
15 | GAAGCCACGTGTGGGT | -0.1
16 | CTATGCACGTGGTGTG | -0.09
17 | GGGGTCACGTGGGCCT | 0.24
18 | CGTTGCACGTGAGTTT | 0.21
19 | TGTGTCACGTGTATTC | 0.05
20 | ACGGACACGTGGTTGG | -0.06
21 | GGGTACACGTGGCAGG | -0.02
22 | TTTTCCACGTGGTGAT | 0.15
23 | GGTGACACGTGATTGA | 0.19

Row | Sequence | relative binding free energy [kcal/mol]
24 | TGGGCCACGTGGTTTT | -0.05
25 | GTTTGCACGTGATAGA | 0.14
26 | AGTGACACGTGTGGAT | -0.09
27 | GGGTACACGTGGTAGG | 0.04
28 | GTTTTCACGTGACTTG | 0.34
29 | GTTTGCACGTGTGACT | 0.11
30 | CTTTGCACGTGGGTTC | -0.2
31 | TTGTGCACGTGACAAT | 0.11
32 | TGTAGCACGTGTTCTG | -0.1
33 | GCGAGCACGTGTGGAT | 0.17
34 | ATATGCACGTGATGGG | 0.09
35 | TTGAGCACGTGGTCGT | -0.2
36 | TTAGTCACGTGTGAAC | 0.28
37 | TGACACACGTGTTGTG | -0.13
38 | TCGTTCACGTGTGGTC | 0.26
39 | CATGACACGTGGAGGG | 0.1
40 | GTCAACACGTGGAAGG | 0.26
41 | GGTGGCACGTGGGACG | -0.14
42 | TAGTGCACGTGTTGGG | 0.05
43 | ATACGCACGTGGGAGT | -0.17
44 | GTAATCACGTGGGAGA | 0.16
45 | TGTAGCACGTGGCGTG | -0.09
46 | TTAGACACGTGATTTT | 0.16

Row | Sequence | relative binding free energy [kcal/mol]
47 | TCTGTCACGTGTGGGC | 0.09
48 | AATGGCACGTGGGAGG | -0.13
49 | TAATTCACGTGGGCTG | 0.24
50 | GGGCGCACGTGATAGT | 0.02
51 | ATTGTCACGTGTGTGC | 0.13
52 | GTGGTCACGTGCGTAT | 0.13
53 | AGTCGCACGTGTGGGA | 0.04
54 | TTAAGCACGTGGTGCT | -0.08
55 | ATGGCCACGTGAGGTG | 0.19
56 | TTTGGCACGTGGGGAA | -0.1
57 | ATTGGCACGTGCAGTT | -0.16
58 | ATGTCCACGTGTATTG | 0.04
59 | GGGGGCACGTGGAGTG | -0.08
60 | CATTTCACGTGCGTGG | 0.11
61 | CGGGTCACGTGGAGGT | 0.19
62 | AGGAGCACGTGGTATG | -0.23
63 | TGTGACACGTGTCGGC | -0.05
64 | CGTTTCACGTGGCTAG | 0.26
65 | TAGAGCACGTGTTATT | -0.13
66 | TTGATCACGTGTCTTT | 0.09
67 | TAGGGCACGTGTGATA | 0
68 | TTTTGCACGTGAGATC | 0.17
69 | TTAATCACGTGAGGAT | 0.35

Row | Sequence | relative binding free energy [kcal/mol]
70 | TGTCGCACGTGGACTG | 0.01
71 | TAGCTCACGTGGATTG | 0.27
72 | GATTACACGTGAGTAT | 0.36
73 | GCATGCACGTGGTGGA | -0.11
74 | GGAGGCACGTGTTACG | -0.05
75 | TATTACACGTGGTCAT | 0.03
76 | GCCTGCACGTGGTGGG | 0.01
77 | GTTCTCACGTGAGAGT | 0.53
78 | TTTGCCACGTGAGGTT | 0.13
79 | ACTGCCACGTGGTTGT | -0.03
80 | GTGTACACGTGTCAGG | 0
81 | TAATTCACGTGGGAAT | 0.15
82 | GACTGCACGTGTGGAG | 0.14
83 | TTTGTCACGTGTCGGC | 0.03
84 | GTATGCACGTGTGATG | 0.11
85 | TGGAGCACGTGGGCGA | -0.18
86 | CTTGACACGTGGCTGG | -0.02
87 | AGGGGCACGTGCGACG | -0.23
88 | ATGGGCACGTGGGTTG | -0.15
89 | AGTTTCACGTGTTGAA | 0.38
90 | TGGAACACGTGTGTCT | 0.1
91 | TGTACCACGTGTTTAG | -0.09
92 | CTTGACACGTGTGGTC | 0.07

Row | Sequence | relative binding free energy [kcal/mol]
93 | GGTATCACGTGGGCGT | 0.02
94 | GCGTACACGTGGGTGA | -0.05
95 | GTGGTCACGTGCGTTA | 0
96 | TTTTACACGTGTTTCT | 0.04
97 | GACGGCACGTGTTTGT | 0.06
98 | TTATGCACGTGGTGTG | -0.26
99 | AAATACACGTGTGTTG | -0.09
100 | TACATCACGTGGTTTT | 0.07
101 | ACGGGCACGTGGTAAT | -0.12
102 | TGTTACACGTGTTAAT | 0.08
103 | GGGAGCACGTGGGCTA | -0.22
104 | CGTCGCACGTGTTGGA | 0
105 | TGGGACACGTGGCGTT | 0.09
106 | GTCGTCACGTGTTGGA | 0.19
107 | CGGCGCACGTGTGTGA | -0.11
108 | GTTGGCACGTGAGCAG | 0.28
109 | TGGAGCACGTGGAAAT | -0.03
110 | TTTTACACGTGAGAGG | 0.32
111 | TGAGTCACGTGCTTGT | 0.07
112 | ATGTGCACGTGTGACG | 0.07
113 | ATATCCACGTGTTGGG | -0.05
114 | TGAAACACGTGATGGG | 0.26
115 | TTTATCACGTGGCGGC | 0.11
